Data published in PubChem BioAssay AID1347165 (National Center for Advancing Translational Sciences (NCATS), 2019).
The whole screen tested about 220,000 compounds, of which about 5,700 (2.6%) were called active. The inconclusive results got no clear call from the source; some entries with a clear call stand among them for comparison. Calls come from the whole dose curve; as a rule, active = well fitted inhibition curve with a large enough effect; inconclusive = small, poorly fitted or top-dose-only effect; inactive = no such curve, though single readings can be large or run the other way. A potency beside an inconclusive call is a rough fit, not a confirmed value.

Molecular target: Lysine-specific demethylase 5B (Homo sapiens) (UniProt Q9UGL1)
Assay: Primary screen for KDM5B Histone Demethylases FDH-coupled qHTS; note: nearly all actives have a fitted effect of over 70% in size; for activity change, negative = inhibition: 0% is about no effect
Conditions: FDH-coupled NADH fluorescence (FDH is formaldehyde dehydrogenase); activity change, negative = inhibition: at 57.7 µM (top of the series) unless noted
In short: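 qHTS format, multiple compound concentrations. Buffer 50 mM HEPES pH 7.5/0.01% Tween-20; 200 nM KDM5BΔAP final; 10 min compound preincubation; substrate-mix levels 12.5 µM peptide, 25 µM α-KG, 0.25 mM NAD⁺; 30 min RT; ΔRFU.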
Potency is the fitted concentration of half-maximal effect; tags give direction and shape of the fitted curve.

Chain of UniProt Q9UGL1 (Q9UGL1 whole entry, looked up): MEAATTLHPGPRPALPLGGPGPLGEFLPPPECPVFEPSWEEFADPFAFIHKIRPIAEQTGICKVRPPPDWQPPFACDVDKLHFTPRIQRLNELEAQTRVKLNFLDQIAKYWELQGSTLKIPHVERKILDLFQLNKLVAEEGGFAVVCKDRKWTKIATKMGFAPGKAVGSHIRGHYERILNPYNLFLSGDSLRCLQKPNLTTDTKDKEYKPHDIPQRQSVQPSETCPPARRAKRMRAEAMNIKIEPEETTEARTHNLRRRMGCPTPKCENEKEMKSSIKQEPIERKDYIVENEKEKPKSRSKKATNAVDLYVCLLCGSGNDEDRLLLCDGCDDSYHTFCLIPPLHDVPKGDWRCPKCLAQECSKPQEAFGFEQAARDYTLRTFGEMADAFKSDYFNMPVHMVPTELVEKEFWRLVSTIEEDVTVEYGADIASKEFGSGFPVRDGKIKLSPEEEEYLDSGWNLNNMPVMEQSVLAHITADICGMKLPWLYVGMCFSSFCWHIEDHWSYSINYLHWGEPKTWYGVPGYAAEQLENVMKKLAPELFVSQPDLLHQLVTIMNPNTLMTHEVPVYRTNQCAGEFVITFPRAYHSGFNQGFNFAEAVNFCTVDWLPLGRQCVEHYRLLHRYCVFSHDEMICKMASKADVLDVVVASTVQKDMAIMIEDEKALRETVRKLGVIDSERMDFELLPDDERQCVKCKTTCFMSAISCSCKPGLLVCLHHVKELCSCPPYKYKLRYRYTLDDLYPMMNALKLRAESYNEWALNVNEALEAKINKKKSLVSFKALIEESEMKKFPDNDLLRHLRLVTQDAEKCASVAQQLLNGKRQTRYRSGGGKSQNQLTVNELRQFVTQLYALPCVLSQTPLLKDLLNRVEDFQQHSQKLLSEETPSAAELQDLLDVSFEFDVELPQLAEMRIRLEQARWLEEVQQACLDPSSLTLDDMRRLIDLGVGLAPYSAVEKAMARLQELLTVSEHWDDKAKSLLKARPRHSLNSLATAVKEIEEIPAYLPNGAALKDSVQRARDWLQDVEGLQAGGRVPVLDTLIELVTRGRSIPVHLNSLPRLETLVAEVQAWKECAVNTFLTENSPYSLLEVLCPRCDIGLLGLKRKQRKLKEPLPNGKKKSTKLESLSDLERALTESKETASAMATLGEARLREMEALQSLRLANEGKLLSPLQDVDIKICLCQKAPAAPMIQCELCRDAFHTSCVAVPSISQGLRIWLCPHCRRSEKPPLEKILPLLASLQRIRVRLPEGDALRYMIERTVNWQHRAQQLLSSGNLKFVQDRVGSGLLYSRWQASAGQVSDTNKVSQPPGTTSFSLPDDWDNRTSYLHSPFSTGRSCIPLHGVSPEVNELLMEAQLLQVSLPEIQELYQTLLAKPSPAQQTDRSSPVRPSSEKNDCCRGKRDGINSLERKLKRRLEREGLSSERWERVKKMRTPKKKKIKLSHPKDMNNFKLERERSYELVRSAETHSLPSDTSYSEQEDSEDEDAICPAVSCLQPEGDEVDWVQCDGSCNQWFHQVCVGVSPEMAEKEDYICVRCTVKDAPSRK

SMILES | Potency | activity change, negative = inhibition
Cc1c(C)c(C)c(S(=O)(=O)Nc2ccc(F)c(C(=O)O)c2)c(C)c1C | inconclusive: 22.4 µM [inhibitor, partial curve, poor fit] | 
N#Cc1c(NC(=O)CNc2ccccc2C(=O)NCC(F)(F)F)sc2c1CCCCC2 | inactive | 
O=C(CC1N=C2c3ccccc3N=C(SCc3ccc(Cl)cc3)N2C1=O)NCCc1ccccc1 (stereo unspecified) | inconclusive: 31.6 µM [inhibitor, partial curve, poor fit] | 
Cc1cc(C)nc(SCc2cn3c(C)cc(C)nc3n2)n1 | inconclusive: 22.4 µM [inhibitor, partial curve, poor fit] | 
CCOc1cc(/C=C2/NC(=O)NC2=O)cc(Cl)c1OCc1ccc(C(=O)O)cc1 | inactive | 
O=c1cc(CSc2ncn[nH]2)[nH]c2c(Cl)cccc12 | inconclusive: 31.6 µM [inhibitor, single point] | 
O=C(Nc1ccc(-c2cc(C(F)(F)F)nn2-c2ccccc2)cc1)c1cccc(F)c1 | inconclusive: 17.8 µM [inhibitor, partial curve, poor fit] | 
O=C(C[C@@H]1CCNC[C@@H]1Cc1cc(-c2ccccc2)on1)NCc1ccc(F)cc1 | inactive | 
O=c1[nH]c(C2CCCN(CC3CCCCC3)C2)nn1-c1ccc(Cl)cc1 (stereo unspecified) | inactive | 
CCN(CC)c1ccc(C(=O)NCc2ccc3c(c2)CCN3C(=O)c2ccccc2)cc1 | inconclusive: 15.8 µM [inhibitor, partial curve, poor fit] | 
Cc1ccc(C)c(N2CCN(C(=O)c3cnc4c(-c5ccccc5)c(C)nn4c3C)CC2)c1 | inconclusive: 35.5 µM [inhibitor, single point] | 
Cc1ccc(-c2cc(C(=O)OC(C)C(N)=O)c3ccccc3n2)cc1 (stereo unspecified) | inconclusive: 22.4 µM [inhibitor, partial curve, poor fit] | 
Cc1ccc(/C=C(\C#N)C(=O)Nc2cc(C)ccc2C)cc1 | inconclusive: 31.6 µM [inhibitor, partial curve, poor fit] | 
O=C(CCc1ncc(-c2ccccc2F)o1)Nc1ccccc1O | inactive | 
CCN(CC)C(=O)C1=C(C)N=C2SC=C(CC(=O)NCC3CC3)N2C1c1ccccc1 (stereo unspecified) | inconclusive: 31.6 µM [inhibitor, partial curve] | 
N#C/C(=C/c1ccc(OC(F)F)cc1)c1ccccn1 | inactive | 
Cc1ccc(C)c(CN2C(=O)c3ccccc3S(=O)c3ccc(C(=O)NCc4ccccc4Cl)cc32)c1 (stereo unspecified) | inconclusive: 1 µM [inhibitor, full curve, poor fit] | 
CCOCCCNC(=O)CSCc1nc(-c2cccc(OC)c2)oc1C | inactive | 
Cc1cc(C)c(CNC(=O)c2nc(-c3ccnn3C)cc3c2ccn3C(C)C)c(=O)[nH]1 | active: 31.6 µM | 
COCC1CN(C2CCC2)CC12CCN(C(=O)c1cncn1C)CC2 (stereo unspecified) | inconclusive: 17.8 µM [inhibitor, partial curve] | 
COc1ccc(CNC(=O)c2cc3c(-c4ccccc4F)nn(C)c3s2)c(OC)c1 | inconclusive: 28.2 µM [inhibitor, partial curve, poor fit] | 

SMILES | Potency | activity change, negative = inhibition
CN1CCN(C(=O)C2CCCN(c3nc4ncccc4o3)C2)CC1 (stereo unspecified) | inconclusive: 35.5 µM [inhibitor, partial curve, poor fit] | 
CCCOc1ccccc1/C=C(\C#N)C(=O)Nc1cccc(C)n1 | inconclusive: 25.1 µM [inhibitor, partial curve, poor fit] | 
COc1cccc(-c2nc3cnccn3c2NCCC(=O)Nc2ccc(F)cc2C)c1 | active: 28.2 µM | 
Cc1ccc(CNC(=O)CCCn2c(=O)c3ccccc3n(CC(=O)C(C)(C)C)c2=O)cc1 | inconclusive: 28.2 µM [inhibitor, partial curve, poor fit] | 
Cc1ccc(CN(C(=O)CCc2cccs2)C2CC2)cc1 | inactive | 
COc1cccc(NC(=O)c2sc3nc(N4CCOCC4)c4c(c3c2N)CC(C)(C)OC4)c1 | inconclusive: 11.2 µM [inhibitor, partial curve, poor fit] | 
COc1ccc(S(=O)(=O)N2CCCCC2)cc1NC(=O)c1ccc(F)cc1 | inactive | 
O=C(c1cccc(F)c1)N(Cc1cccc2[nH]ccc12)C1CC1 | inactive | 
Cc1c(CC(=O)Nc2ccc(Cn3cncn3)cc2)c(=O)oc2cc(O)ccc12 | inconclusive: 3.16 µM [inhibitor, full curve, poor fit] | 
C#CCNC(=O)c1cc(-c2ccc([S+](C)(=O)[O-])cc2)nc2c1cnn2C | active: 31.6 µM | 
CCc1cc(=O)oc2cc(OCC(=O)NCCc3ccc(S(N)(=O)=O)cc3)ccc12 | inconclusive: 15.8 µM [inhibitor, partial curve, poor fit] | 
COc1ccc(-c2cc(C(=O)NCCc3cnc[nH]3)c3c(c2)N(C)CCO3)cn1 | active: 28.2 µM | 
O=C(NC1CC(=O)N(c2ccc(Cl)cc2)C1)C(=O)c1c[nH]c2ccccc12 (stereo unspecified) | inconclusive: 1.26 µM [inhibitor, full curve, poor fit] | 
Cc1nnc(N2CCN(C(=O)Nc3cc(F)ccc3F)CC2)c2nn(-c3ccc(Cl)cc3)c(C)c12 |  | inconclusive: -31.2% [inhibitor]
O=C(O)CCC(=O)N1Cc2ccccc2CC2(CCCN2Cc2cccnc2)C1 (stereo unspecified) | inconclusive: 56.2 µM [inhibitor, partial curve, poor fit] | 
CCc1cc(NCCNC(=O)c2ccccc2Cl)n2nccc2n1 | inconclusive: 28.2 µM [inhibitor, partial curve, poor fit] | 
CCn1cc(CN2CCN(C(=O)c3ccc(OC)nc3)CC2)ccc1=O | inconclusive: 11.2 µM [inhibitor, partial curve] | 
CCOC(=O)c1cc2c(=O)n3ccccc3nc2n(CC(C)C)c1=NC(=O)C(C)Oc1ccccc1 (stereo unspecified) | inconclusive: 15.8 µM [inhibitor, partial curve, poor fit] | 
CC(C)c1ccc(S(=O)(=O)c2nnn3c2nc(NC2CCCC2)c2ccccc23)cc1 | inconclusive: 44.7 µM [inhibitor, partial curve] | 
O=C(CN1CCN(c2nccs2)CC1)NCc1ccc(Cl)cc1 | inactive | 
